Paper PMC5827661
No constants are given. Whether binding was seen depends on the method and setting. In cells and extracts the contact can be indirect. Some results given as binding are weak or reduced against the parent protein; the word gives no strength. One block for each substance: values may come before it.

Amino acid sequences for entries named in this document (tags omitted). Residues count along the entry.
UniProt Q60751, residues 31-1373: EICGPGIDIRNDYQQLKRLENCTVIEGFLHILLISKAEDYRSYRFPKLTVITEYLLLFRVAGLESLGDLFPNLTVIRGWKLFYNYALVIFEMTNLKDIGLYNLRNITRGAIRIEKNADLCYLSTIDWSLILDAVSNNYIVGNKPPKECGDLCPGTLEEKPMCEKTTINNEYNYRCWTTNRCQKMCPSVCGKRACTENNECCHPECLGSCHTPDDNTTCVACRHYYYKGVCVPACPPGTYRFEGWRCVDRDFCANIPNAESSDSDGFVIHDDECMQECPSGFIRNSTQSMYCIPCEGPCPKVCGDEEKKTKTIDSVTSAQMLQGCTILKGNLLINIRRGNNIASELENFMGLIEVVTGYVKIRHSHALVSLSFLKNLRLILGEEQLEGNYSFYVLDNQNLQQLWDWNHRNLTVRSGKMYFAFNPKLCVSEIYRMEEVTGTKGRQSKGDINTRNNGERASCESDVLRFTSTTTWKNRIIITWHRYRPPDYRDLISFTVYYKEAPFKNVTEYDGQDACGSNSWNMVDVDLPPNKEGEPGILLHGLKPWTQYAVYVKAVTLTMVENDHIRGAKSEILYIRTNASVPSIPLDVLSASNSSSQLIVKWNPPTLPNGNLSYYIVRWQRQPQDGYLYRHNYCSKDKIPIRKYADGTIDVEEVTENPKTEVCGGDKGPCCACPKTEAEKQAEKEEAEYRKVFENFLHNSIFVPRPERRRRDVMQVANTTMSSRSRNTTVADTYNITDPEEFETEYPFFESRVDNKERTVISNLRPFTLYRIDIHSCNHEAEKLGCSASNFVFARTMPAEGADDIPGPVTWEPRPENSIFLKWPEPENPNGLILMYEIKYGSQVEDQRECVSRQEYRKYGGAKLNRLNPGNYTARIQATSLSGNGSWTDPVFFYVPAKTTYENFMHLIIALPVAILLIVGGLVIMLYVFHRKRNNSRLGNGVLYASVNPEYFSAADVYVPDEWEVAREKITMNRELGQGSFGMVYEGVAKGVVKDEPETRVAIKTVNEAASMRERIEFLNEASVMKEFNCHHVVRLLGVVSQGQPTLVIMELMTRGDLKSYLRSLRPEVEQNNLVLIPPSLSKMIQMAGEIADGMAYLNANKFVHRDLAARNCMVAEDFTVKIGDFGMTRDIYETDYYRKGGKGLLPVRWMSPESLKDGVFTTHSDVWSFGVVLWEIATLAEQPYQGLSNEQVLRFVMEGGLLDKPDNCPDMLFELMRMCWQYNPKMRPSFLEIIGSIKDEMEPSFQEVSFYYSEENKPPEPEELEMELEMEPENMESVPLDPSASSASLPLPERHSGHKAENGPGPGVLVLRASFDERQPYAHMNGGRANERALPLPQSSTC
UniProt P08069, residues 31-1367: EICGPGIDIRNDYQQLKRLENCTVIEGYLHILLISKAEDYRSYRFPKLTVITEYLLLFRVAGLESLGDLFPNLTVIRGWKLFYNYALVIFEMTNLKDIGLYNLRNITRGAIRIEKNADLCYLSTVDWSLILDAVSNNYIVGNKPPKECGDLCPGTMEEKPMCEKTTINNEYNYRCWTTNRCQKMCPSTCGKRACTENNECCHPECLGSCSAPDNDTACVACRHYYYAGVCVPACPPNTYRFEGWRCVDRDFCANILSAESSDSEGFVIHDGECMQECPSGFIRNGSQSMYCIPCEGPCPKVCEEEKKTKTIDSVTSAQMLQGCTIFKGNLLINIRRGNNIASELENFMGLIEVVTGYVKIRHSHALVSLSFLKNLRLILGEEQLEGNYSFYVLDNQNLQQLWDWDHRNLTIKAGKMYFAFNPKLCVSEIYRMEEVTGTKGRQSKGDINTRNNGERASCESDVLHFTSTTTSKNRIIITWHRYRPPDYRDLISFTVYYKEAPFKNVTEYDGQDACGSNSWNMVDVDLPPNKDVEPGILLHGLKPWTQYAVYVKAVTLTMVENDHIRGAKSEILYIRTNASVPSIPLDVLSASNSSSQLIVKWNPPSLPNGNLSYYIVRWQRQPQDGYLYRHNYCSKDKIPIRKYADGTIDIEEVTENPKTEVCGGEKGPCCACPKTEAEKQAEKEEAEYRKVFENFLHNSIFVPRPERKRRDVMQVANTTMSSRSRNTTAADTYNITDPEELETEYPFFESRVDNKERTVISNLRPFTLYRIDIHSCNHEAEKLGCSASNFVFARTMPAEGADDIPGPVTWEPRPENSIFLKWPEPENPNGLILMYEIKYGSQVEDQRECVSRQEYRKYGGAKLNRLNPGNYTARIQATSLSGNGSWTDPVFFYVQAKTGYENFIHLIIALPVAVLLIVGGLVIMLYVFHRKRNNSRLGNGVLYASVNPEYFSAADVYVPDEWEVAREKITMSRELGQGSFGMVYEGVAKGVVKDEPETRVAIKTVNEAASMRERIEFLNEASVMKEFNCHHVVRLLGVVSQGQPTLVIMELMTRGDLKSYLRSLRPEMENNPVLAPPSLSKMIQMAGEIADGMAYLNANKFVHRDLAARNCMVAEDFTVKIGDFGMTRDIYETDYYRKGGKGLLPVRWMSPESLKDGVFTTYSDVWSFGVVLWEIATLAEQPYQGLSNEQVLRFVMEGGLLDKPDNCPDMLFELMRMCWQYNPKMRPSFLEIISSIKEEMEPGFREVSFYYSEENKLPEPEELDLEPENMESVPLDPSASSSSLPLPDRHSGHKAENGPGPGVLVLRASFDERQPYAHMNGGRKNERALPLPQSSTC
UniProt P41593, residues 27-591: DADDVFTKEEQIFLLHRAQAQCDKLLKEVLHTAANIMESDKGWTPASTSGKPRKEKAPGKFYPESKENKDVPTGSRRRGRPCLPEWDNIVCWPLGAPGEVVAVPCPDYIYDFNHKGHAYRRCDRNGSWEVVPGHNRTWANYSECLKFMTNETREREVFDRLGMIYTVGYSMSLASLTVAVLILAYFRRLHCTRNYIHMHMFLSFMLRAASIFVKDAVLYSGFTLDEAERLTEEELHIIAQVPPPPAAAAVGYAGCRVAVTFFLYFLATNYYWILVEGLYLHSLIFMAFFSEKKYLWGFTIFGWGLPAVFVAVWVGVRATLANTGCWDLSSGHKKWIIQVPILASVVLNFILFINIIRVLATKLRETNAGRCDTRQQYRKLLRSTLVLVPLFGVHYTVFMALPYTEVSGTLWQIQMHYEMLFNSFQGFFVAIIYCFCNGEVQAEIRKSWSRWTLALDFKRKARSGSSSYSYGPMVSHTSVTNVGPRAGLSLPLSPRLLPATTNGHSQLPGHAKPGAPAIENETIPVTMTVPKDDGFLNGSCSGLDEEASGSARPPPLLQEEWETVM
UniProt Q03431, residues 27-593: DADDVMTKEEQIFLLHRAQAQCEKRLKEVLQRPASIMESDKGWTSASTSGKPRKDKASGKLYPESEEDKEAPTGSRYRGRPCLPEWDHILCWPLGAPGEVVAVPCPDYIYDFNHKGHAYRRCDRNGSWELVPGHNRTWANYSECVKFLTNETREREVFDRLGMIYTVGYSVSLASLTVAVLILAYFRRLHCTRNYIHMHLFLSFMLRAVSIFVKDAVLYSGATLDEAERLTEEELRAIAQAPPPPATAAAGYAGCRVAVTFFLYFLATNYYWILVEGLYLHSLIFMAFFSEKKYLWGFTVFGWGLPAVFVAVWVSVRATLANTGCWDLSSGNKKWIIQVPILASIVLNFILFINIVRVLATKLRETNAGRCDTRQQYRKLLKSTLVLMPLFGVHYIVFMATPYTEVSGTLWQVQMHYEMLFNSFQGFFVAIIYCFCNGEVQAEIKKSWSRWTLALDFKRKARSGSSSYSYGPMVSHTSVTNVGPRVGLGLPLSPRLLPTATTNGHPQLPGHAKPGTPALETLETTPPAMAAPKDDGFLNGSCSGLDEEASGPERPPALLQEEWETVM

Key:
[1] = molecular target: IGF1R (endogenous, primary calvarial osteoblasts) (not stated (endogenous in primary calvarial osteoblasts)) (UniProt Q60751); assay: co-IP; primary calvarial osteoblasts, endogenous proteins, vehicle; cell extracts immunoprecipitated and immunoblotted
[2] = molecular target: IGF1R (endogenous, primary calvarial osteoblasts) (not stated (endogenous in primary calvarial osteoblasts)) (UniProt Q60751); assay: co-IP; primary calvarial osteoblasts, endogenous proteins, treated with PTH for 30 min; cell extracts immunoprecipitated and immunoblotted
[3] = molecular target: IGF1R (endogenous, primary calvarial osteoblasts) (not stated (endogenous in primary calvarial osteoblasts)) (UniProt Q60751); assay: co-IP; primary calvarial osteoblasts, endogenous proteins, treated with IGF-1 for 30 min; cell extracts immunoprecipitated and immunoblotted
IGF1R-Flag (human) [4] = molecular target: IGF1R-Flag (human) (UniProt P08069); assay: co-IP; HEK293 cells transfected with IGF1R-Flag and PTH1R-HA plasmids, vehicle; cell extracts immunoprecipitated and immunoblotted
IGF1R-Flag (human) [5] = molecular target: IGF1R-Flag (human) (UniProt P08069); assay: co-IP; HEK293 cells transfected with IGF1R-Flag and PTH1R-HA plasmids, treated with PTH for 30 min; cell extracts immunoprecipitated and immunoblotted
IGF1R-Flag (human) [6] = molecular target: IGF1R-Flag (human) (UniProt P08069); assay: co-IP; HEK293 cells transfected with IGF1R-Flag and PTH1R-HA plasmids, treated with IGF-1 for 30 min; cell extracts immunoprecipitated and immunoblotted
IGF1R-YFP1 (human) [7] = molecular target: IGF1R-YFP1 (human) (UniProt P08069); assay: split reporter; YFP-based protein-fragment complementation assay (YFP-PCA) in HEK293 cells transfected with both plasmids, treated with PTH for 5 min
IGF1R-YFP1 (human) [8] = molecular target: IGF1R-YFP1 (human) (UniProt P08069); assay: split reporter; YFP-based protein-fragment complementation assay (YFP-PCA) in HEK293 cells transfected with both plasmids, treated with vehicle for 5 min
IGF1R-YFP1 (human) [9] = molecular target: IGF1R-YFP1 (human) (UniProt P08069); assay: split reporter; YFP-based protein-fragment complementation assay (YFP-PCA) in HEK293 cells transfected with both plasmids, treated with IGF-1 for 5 min; images and fluorimetry

binding [3]: binds
Substance: PTH1R (endogenous, primary calvarial osteoblasts) (from UniProt P41593 27-591) (receptor)
binding [1]: no binding (condition: vehicle, without IGF-1)
binding [2]: no binding (condition: with PTH, without IGF-1)

binding (IGF1R-Flag (human) [6]): binds
Substance: PTH1R-HA (from UniProt Q03431 27-593) (receptor)
binding (IGF1R-Flag (human) [4]): no binding (condition: vehicle, without IGF-1)
binding (IGF1R-Flag (human) [5]): no binding (condition: with PTH, without IGF-1)

binding (IGF1R-YFP1 (human) [9]): binds
Substance: PTH1R-YFP2 (from UniProt Q03431 27-593) (receptor)
binding (IGF1R-YFP1 (human) [7]): no binding (condition: with PTH, without IGF-1)
binding (IGF1R-YFP1 (human) [8]): no binding (condition: vehicle, without IGF-1)
